According to article PMC4336329 (PLoS ONE, 2015):
The whole screen tested about 310,000 compounds, of which about 2,200 (0.71%) showed an effect of 50% or more. The effect is printed as a negative number. This is one part of the list.

Target: human ether-à-go-go-related gene (hERG) potassium channel (human, UniProt Q12809)
Experiment: primary screen, population patch clamp on CHO cells stably expressing hERG

Sequence of human ether-à-go-go-related gene (hERG) potassium channel (Q12809 whole entry, looked up): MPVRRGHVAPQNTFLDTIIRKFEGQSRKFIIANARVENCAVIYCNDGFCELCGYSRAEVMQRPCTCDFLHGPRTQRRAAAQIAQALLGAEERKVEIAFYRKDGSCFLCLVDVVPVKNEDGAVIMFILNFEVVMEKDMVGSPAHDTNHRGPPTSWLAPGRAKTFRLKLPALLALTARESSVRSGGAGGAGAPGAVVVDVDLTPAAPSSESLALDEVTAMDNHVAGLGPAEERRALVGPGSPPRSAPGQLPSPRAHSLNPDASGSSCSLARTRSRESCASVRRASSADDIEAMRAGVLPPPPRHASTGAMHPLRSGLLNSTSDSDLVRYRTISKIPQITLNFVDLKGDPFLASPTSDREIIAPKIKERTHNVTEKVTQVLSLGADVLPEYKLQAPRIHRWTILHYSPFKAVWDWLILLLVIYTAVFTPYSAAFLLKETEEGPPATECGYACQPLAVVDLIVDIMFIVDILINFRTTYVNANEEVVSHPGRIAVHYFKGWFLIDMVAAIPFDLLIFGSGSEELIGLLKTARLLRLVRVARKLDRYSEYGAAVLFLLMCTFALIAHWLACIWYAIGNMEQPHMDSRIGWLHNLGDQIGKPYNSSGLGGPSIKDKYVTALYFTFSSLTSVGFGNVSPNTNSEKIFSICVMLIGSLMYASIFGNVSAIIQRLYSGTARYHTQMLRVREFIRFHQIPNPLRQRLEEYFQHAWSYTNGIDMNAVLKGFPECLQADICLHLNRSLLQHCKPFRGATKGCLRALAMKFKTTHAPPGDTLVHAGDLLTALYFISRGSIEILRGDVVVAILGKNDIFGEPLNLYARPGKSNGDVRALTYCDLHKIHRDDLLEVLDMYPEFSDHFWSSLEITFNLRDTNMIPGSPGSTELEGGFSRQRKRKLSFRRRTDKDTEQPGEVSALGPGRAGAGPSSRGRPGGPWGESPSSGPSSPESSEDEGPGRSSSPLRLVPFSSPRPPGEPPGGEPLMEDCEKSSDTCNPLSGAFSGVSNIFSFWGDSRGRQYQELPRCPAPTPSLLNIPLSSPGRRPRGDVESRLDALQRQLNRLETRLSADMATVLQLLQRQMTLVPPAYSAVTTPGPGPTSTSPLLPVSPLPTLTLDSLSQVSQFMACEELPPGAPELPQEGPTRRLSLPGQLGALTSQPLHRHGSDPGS

Structure (SMILES) | hERG current change (%, negative = inhibition) at 1uM
COc1ccccc1CNS(=O)(=O)c1ccc2c(c1)CCCN2C(C)=O | 13.2%
CCCCNC(=O)C1C2C=CC3(CN(Cc4ccc(C)cc4)C(=O)C13)O2 (centres unmarked) | 13.1%
Cc1[nH]c2ccccc2c1C1(O)C(=O)N(C(C)C)c2ccccc21 (centres unmarked) | 18.8%
Cc1nnc(SCC(=O)Nc2ccc(O)cc2)c2ccccc12 | 22.6%
CC(=O)NCCCC(=O)NNC1CC(=O)N(c2cccc(Cl)c2)C1=O (centres unmarked) | 16.2%
CC(C)N1C(=O)C(=O)N(CC(=O)N2CCc3ccccc32)C1=O | 3.95%
O=C(NCc1ccc(Cl)cc1)c1cc(-c2ccco2)on1 | 11.6%
Cn1c(=O)[nH]c(=O)c2c1nc(N1CCN(CCO)CC1)n2CCSc1nc2ccccc2s1 | 9.51%
CCCn1c2ccc(/C(C)=N\O)cc2c2cc(/C(C)=N/O)ccc21 | 11.5%
CCOc1ccc(C(=O)Nc2nnc(S(=O)(=O)N(C)Cc3ccco3)s2)cc1 | 6.72%
O=C(Nc1ccccc1)Nc1nc(-c2ccccc2)cs1 | 16.5%
CC(C)(C)/C(COc1ccccc1[N+](=O)[O-])=N/O | 9%
Cc1cc(OCc2cc(C(=O)NC(C)c3c(C)nn(C)c3C)no2)cc(C)c1Cl (centres unmarked) | -10.2%
COCCOC(=O)C1=C(N)OC2=C(C(=O)CC(C)(C)C2)C1c1ccncc1 (centres unmarked) | 7.95%
COc1ccccc1NC(=O)NN1CCCCC1 | -4.28%
CCC(=O)N(c1nnc(SCC(=O)NN2C(=O)NC3(CCC(C)CC3)C2=O)s1)C1CC1 (centres unmarked) | 5.39%
COc1ccc(-c2nn(-c3ccccc3)cc2/C=C2/SC(=S)N(CCC(=O)O)C2=O)cc1 | 16.9%
CCCc1cc(=O)oc2cc(OC(C)C(=O)NCC3CCC(C(=O)O)CC3)ccc12 (centres unmarked) | 16.6%
O=C(Nc1ccc2oc(-c3ccccc3F)nc2c1)c1ccccc1F | 2.26%

Structure (SMILES) | hERG current change (%, negative = inhibition) at 1uM
Cc1c(CN2CCC(n3nccc3NC(=O)c3cccc(F)c3)CC2)cnn1C | 16.9%
Cc1cccc(NC(=O)c2ccc(-n3cncn3)c([N+](=O)[O-])c2)c1 | -20.2%
Cc1nsc2c1ccc1ccccc12 | 8.16%
Cc1snc(SCc2c(F)cccc2Cl)c1C#N | 14%
Cc1ccc(S(=O)(=O)N2CCCN(S(=O)(=O)c3ccc(C(F)(F)F)cc3)CC2)cc1 | 4.46%
Cc1ccc(N2C(=O)N(CC(=O)Nc3ccccc3C)C(=O)C2C)cc1 (centres unmarked) | 8.03%
O=C(NCc1ccc(F)cc1)c1noc2c1CCCC2 | 3.67%
COc1ccc(-c2c(-c3cc(OC)c(OC)c(OC)c3)noc2C)cn1 | -4.66%
Cc1ccc(SCC(=O)OCc2csc(CC(=O)Nc3ccccc3C)n2)cc1C | 5.37%
O=C(Nc1ccc(NC(=O)c2cccc([N+](=O)[O-])c2)cc1)c1cccc([N+](=O)[O-])c1 | 9.44%
CC1CCCN(C(=O)CCNC(=O)Cn2cnc3ccccc3c2=O)C1 (centres unmarked) | 16.1%
CCCCC(=O)NCc1ccc(Cl)cc1 | 9.58%
CC(CNC(=O)CC(C)(C)C)NC(=O)CC(C)(C)C (centres unmarked) | 5.95%
COc1ccc([C@H]2CC(=O)C=C(c3ccc(OC(F)(F)F)cc3)C2)cc1OC | 1.69%
CC1CN(C(c2cccs2)c2sc3ncnn3c2O)CC(C)O1 (centres unmarked) | 19.7%
CCOC(=O)CCCNC(=O)CCNC(=O)c1ccc(OC)cc1 | 1.57%
COc1cccc(/C(O)=C2/C(=O)C(=O)N(CCN(C)C)C2c2ccccn2)c1 (centres unmarked) | -9.56%
O=C(Nc1cccc(S(=O)(=O)N2CCCCC2)c1)c1ccc(OCC2CCCO2)cc1 (centres unmarked) | 7.59%
C=CCNC(=O)c1ccc(-c2ccc([N+](=O)[O-])cc2)o1 | -18.2%

Structure (SMILES) | hERG current change (%, negative = inhibition) at 1uM
O=[N+]([O-])c1ccc(NC(=S)NCCc2ccc(Cl)cc2)cc1 | 3.96%
NC(=O)c1ccc(NC(=O)CN2CCN(S(=O)(=O)c3ccc4c(c3)OCCO4)CC2)cc1 | 4.49%
NC(=O)c1ccsc1NC(=O)C1CC1 | 10.9%
CCN1CCN(C(=S)Nc2cc(C(=O)OC)ccc2C(=O)OC)CC1 | 6.5%
O=C(c1ccc(Br)cc1)N1CCC2(CC1)NCCc1[nH]cnc12 | -37.5%
Cc1onc(-c2c(F)cccc2Cl)c1C(=O)Nc1cccc(Cn2cccn2)c1 | -2.11%
CCC(C)(C)NC(=O)C(c1cccc(OC)c1OC)N(CCOC)C(=O)CCC(=O)Nc1cc(C)on1 (centres unmarked) | 8.47%
C=CCNc1c2c(nc3nnnn13)CCCC2 | 9.9%
COc1ccc(Nc2ncc3c(n2)CC(c2ccc(C)cc2)CC3=O)cc1 (centres unmarked) | 0.291%
CCC1Oc2ccc(C)cc2N(CC(=O)N(Cc2ccc(C)o2)C2CCCC2)C1=O (centres unmarked) | 9.41%
CN(CC(=O)NC1CCCc2ccccc21)S(=O)(=O)c1cccs1 (centres unmarked) | 6.6%
c1ccc(C(c2nnnn2C2CCCC2)N2CCN(c3ccccc3)CC2)cc1 (centres unmarked) | -5.63%
COc1ccc(S(=O)(=O)N(C(C)=O)c2ccc3oc(=O)sc3c2)cc1 | 2.66%
O=C(NCC1CCCO1)c1c(O)c2cccc3c2n(c1=O)CCC3 (centres unmarked) | 7.11%
C[C@H](N)c1nnc(SCC(=O)c2ccc(Cl)cc2)o1 | -3.17%
Cc1cc(=O)[nH]c(SCc2ccc(Cl)cc2)n1 | 11.3%
CN(C)NC(=O)c1ccsc1NC(=O)c1ccc(S(=O)(=O)N2CCCC2)cc1 | 8.64%
COCCCNC(=O)CNC(=S)N(Cc1ccccc1F)C1CCCCC1 | -6.9%
